# Reference: the supplement of paper PMC8728848
# This is one part of the list.
# Experiments:
# Experiment in all cases: glycan array binding signal (z-score within array); higher = stronger binding
# Conditions in all cases: glycan notation: IUPAC condensed, linker removed
# [1] = biological target: Neu5Ac(a2-3)Gal(b1-3)[Neu5Ac(a2-6)]GlcNAc(b1-3)[Fuc(a1-3)[Gal(b1-4)]GlcNAc(b1-6)]Gal(b1-4)Glc
# Method in brief: (§1)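 The binding signal is a Z-score computed within each array. Data were drawn from 3228 arrays in the Consortium for Functional Glycomics database, restricted to those with a known protein sequence. Scores were averaged over arrays of the same protein sequence at different concentrations or buffers, and over linkers, and negative values can be taken as non-binding.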
# [2] = biological target: Neu5Ac(a2-3)Gal(b1-3)]Neu5Ac(a2-3)Gal(b1-4)]GlcNAc
# Method in brief: as §1
# Neu5Ac(a2-3)Gal(b1-4)Glc = biological target: Neu5Ac(a2-3)Gal(b1-4)Glc
# Method in brief: as §1
# [3] = biological target: Neu5Ac(a2-3)Gal(b1-4)GlcNAc
# Method in brief: as §1
# [4] = biological target: Neu5Ac(a2-3)Gal(b1-4)GlcNAc(b1-2)Man
# Method in brief: as §1
# [5] = biological target: Neu5Ac(a2-3)Gal(b1-4)GlcNAc(b1-2)Man(a1-3)[GlcNAc(b1-4)][Neu5Ac(a2-3)Gal(b1-4)GlcNAc(b1-2)Man(a1-6)]Man(b1-4)GlcNAc(b1-4)GlcNAc
# Method in brief: as §1
# [6] = biological target: Neu5Ac(a2-3)Gal(b1-4)GlcNAc(b1-2)Man(a1-3)[Neu5Ac(a2-3)Gal(b1-4)GlcNAc(b1-2)Man(a1-6)]Man(b1-4)GlcNAc(b1-4)GlcNAc
# Method in brief: as §1
# [7] = biological target: Neu5Ac(a2-3)Gal(b1-4)GlcNAc(b1-2)Man(a1-3)[Neu5Ac(a2-3)Gal(b1-4)GlcNAc(b1-2)Man(a1-6)]Man(b1-4)GlcNAc(b1-4)[Fuc(a1-6)]GlcNAc
# Method in brief: as §1
# [8] = biological target: Neu5Ac(a2-3)Gal(b1-4)GlcNAc(b1-2)Man(a1-3)[Neu5Ac(a2-6)Gal(b1-4)GlcNAc(b1-2)Man(a1-6)]Man(b1-4)GlcNAc(b1-4)GlcNAc
# Method in brief: as §1
# [9] = biological target: Neu5Ac(a2-3)Gal(b1-4)GlcNAc(b1-2)[Neu5Ac(a2-3)Gal(b1-4)GlcNAc(b1-4)]Man(a1-3)[GlcNAc(b1-4)][Neu5Ac(a2-3)Gal(b1-4)GlcNAc(b1-2)[Neu5Ac(a2-3)Gal(b1-4)GlcNAc(b1-6)]Man(a1-6)]Man(b1-4)GlcNAc(b1-4)GlcNAc
# Method in brief: as §1
# [10] = biological target: Neu5Ac(a2-3)Gal(b1-4)GlcNAc(b1-2)[Neu5Ac(a2-3)Gal(b1-4)GlcNAc(b1-4)]Man(a1-3)[GlcNAc(b1-4)][Neu5Ac(a2-3)Gal(b1-4)GlcNAc(b1-4)Man(a1-6)]Man(b1-4)GlcNAc(b1-4)GlcNAc
# Method in brief: as §1
# [11] = biological target: Neu5Ac(a2-3)Gal(b1-4)GlcNAc(b1-2)[Neu5Ac(a2-3)Gal(b1-4)GlcNAc(b1-6)]Man(a1-6)[Neu5Ac(a2-3)Gal(b1-4)GlcNAc(b1-2)Man(a1-3)][GlcNAc(b1-4)]Man(b1-4)GlcNAc(b1-4)GlcNAc
# Method in brief: as §1
# [12] = biological target: Neu5Ac(a2-3)Gal(b1-4)GlcNAc(b1-3)Gal
# Method in brief: as §1
# [13] = biological target: Neu5Ac(a2-3)Gal(b1-4)GlcNAc(b1-3)Gal(b1-3)GlcNAc
# Method in brief: as §1
# [14] = biological target: Neu5Ac(a2-3)Gal(b1-4)GlcNAc(b1-3)Gal(b1-4)GlcNAc
# Method in brief: as §1
# [15] = biological target: Neu5Ac(a2-3)Gal(b1-4)GlcNAc(b1-3)Gal(b1-4)GlcNAc(b1-2)Man(a1-3)[Neu5Ac(a2-3)Gal(b1-4)GlcNAc(b1-3)Gal(b1-4)GlcNAc(b1-2)Man(a1-6)]Man(b1-4)GlcNAc(b1-4)GlcNAc
# Method in brief: as §1
# [16] = biological target: Neu5Ac(a2-3)Gal(b1-4)GlcNAc(b1-3)Gal(b1-4)GlcNAc(b1-3)Gal(b1-4)GlcNAc
# Method in brief: as §1
# [17] = biological target: Neu5Ac(a2-3)Gal(b1-4)GlcNAc(b1-3)Gal(b1-4)GlcNAc(b1-3)Gal(b1-4)GlcNAc(b1-2)Man(a1-3)[Neu5Ac(a2-3)Gal(b1-4)GlcNAc(b1-3)Gal(b1-4)GlcNAc(b1-3)Gal(b1-4)GlcNAc(b1-2)Man(a1-6)]GalNAc
# Method in brief: as §1
# [18] = biological target: Neu5Ac(a2-3)Gal(b1-4)GlcNAc(b1-3)Gal(b1-4)GlcNAc(b1-3)GalNAc
# Method in brief: as §1
# [19] = biological target: Neu5Ac(a2-3)Gal(b1-4)GlcNAc(b1-3)Gal(b1-4)GlcNAc(b1-3)[Neu5Ac(a2-3)Gal(b1-4)GlcNAc(b1-3)Gal(b1-4)GlcNAc(b1-6)]GalNAc
# Method in brief: as §1
# [20] = biological target: Neu5Ac(a2-3)Gal(b1-4)GlcNAc(b1-3)Gal(b1-4)GlcNAc(b1-6)[Gal(b1-3)]GalNAc
# Method in brief: as §1
# [21] = biological target: Neu5Ac(a2-3)Gal(b1-4)GlcNAc(b1-3)Gal(b1-4)[Fuc(a1-3)]GlcNAc
# Method in brief: as §1
# [22] = biological target: Neu5Ac(a2-3)Gal(b1-4)GlcNAc(b1-3)GalNAc
# Method in brief: as §1
# [23] = biological target: Neu5Ac(a2-3)Gal(b1-4)GlcNAc(b1-3)[Neu5Ac(a2-3)Gal(b1-4)GlcNAc(b1-6)]GalNAc
# Method in brief: as §1
# [24] = biological target: Neu5Ac(a2-3)Gal(b1-4)GlcNAc(b1-6)GalNAc
# Method in brief: as §1
# [25] = biological target: Neu5Ac(a2-3)Gal(b1-4)GlcNAc(b1-6)[Gal(b1-3)]GalNAc
# Method in brief: as §1
# [26] = biological target: Neu5Ac(a2-3)Gal(b1-4)GlcNAc(b1-6)[Neu5Ac(a2-3)Gal(b1-3)]GalNAc
# Method in brief: as §1
# [27] = biological target: Neu5Ac(a2-3)Gal(b1-4)GlcNAc6S
# Method in brief: as §1
# [28] = biological target: Neu5Ac(a2-3)Gal(b1-4)[Fuc(a1-3)]GlcNAc
# Method in brief: as §1
# [29] = biological target: Neu5Ac(a2-3)Gal(b1-4)[Fuc(a1-3)]GlcNAc(b1-2)Man
# Method in brief: as §1
# [30] = biological target: Neu5Ac(a2-3)Gal(b1-4)[Fuc(a1-3)]GlcNAc(b1-3)Gal
# Method in brief: as §1
# [31] = biological target: Neu5Ac(a2-3)Gal(b1-4)[Fuc(a1-3)]GlcNAc(b1-3)Gal(b1-4)GlcNAc
# Method in brief: as §1
# [32] = biological target: Neu5Ac(a2-3)Gal(b1-4)[Fuc(a1-3)]GlcNAc(b1-3)Gal(b1-4)[Fuc(a1-3)]GlcNAc(b1-3)Gal(b1-4)[Fuc(a1-3)]GlcNAc
# Method in brief: as §1
# [33] = biological target: Neu5Ac(a2-3)Gal(b1-4)[Fuc(a1-3)]GlcNAc(b1-3)GalNAc
# Method in brief: as §1
# [34] = biological target: Neu5Ac(a2-3)Gal(b1-4)[Fuc(a1-3)]GlcNAc(b1-6)[Gal(b1-3)]GalNAc
# Method in brief: as §1
# [35] = biological target: Neu5Ac(a2-3)Gal(b1-4)[Fuc(a1-3)]GlcNAc(b1-6)[Neu5Ac(a2-3)Gal(b1-3)]GalNAc
# Method in brief: as §1
# [36] = biological target: Neu5Ac(a2-3)Gal(b1-4)[Fuc(a1-3)]GlcNAc6S
# Method in brief: as §1
# [37] = biological target: Neu5Ac(a2-3)Gal6S(b1-4)GlcNAc
# Method in brief: as §1
binder,measurement,setting,value
"Sebin2 (Coprinopsis cinerea), A8PE78 (protein) MTTPFYAYCHNVQDDNTWRLGLVFANRSTADEWWRAISEATSSIPITKSITRVTPQYYTHDIRVWNMYNFFVDGNIKSISDKFRGRLFITLEYDRSGRGVSVFPPLHIVDHVSGNWYYIRSKTAPHLFWFYDETRNAIYASKEKRTRFKVSIRNPSPQTPKDAIMINSDDVVIHIKESLYVGVDSYLGHIIPTRAYRTFKFGELEGGAIAGIEVAENAEERCSSTFDGASLYFVGPDSSSPGEPWELV",glycan array binding signal (z-score),[1],-0.228
same,glycan array binding signal (z-score),[2],-0.097
same,glycan array binding signal (z-score),Neu5Ac(a2-3)Gal(b1-4)Glc,8.35
same,glycan array binding signal (z-score),[3],-0.229
same,glycan array binding signal (z-score),[4],0.448
same,glycan array binding signal (z-score),[5],-0.15
same,glycan array binding signal (z-score),[6],-0.075
same,glycan array binding signal (z-score),[7],-0.242
same,glycan array binding signal (z-score),[8],-0.277
same,glycan array binding signal (z-score),[9],-0.053
same,glycan array binding signal (z-score),[10],-0.204
same,glycan array binding signal (z-score),[11],-0.187
same,glycan array binding signal (z-score),[12],0.088
same,glycan array binding signal (z-score),[13],0.2
same,glycan array binding signal (z-score),[14],-0.336
same,glycan array binding signal (z-score),[15],0.213
same,glycan array binding signal (z-score),[16],-0.201
same,glycan array binding signal (z-score),[17],-0.082
same,glycan array binding signal (z-score),[18],0.042
same,glycan array binding signal (z-score),[19],0.067
same,glycan array binding signal (z-score),[20],0.054
same,glycan array binding signal (z-score),[21],-0.22
same,glycan array binding signal (z-score),[22],0.079
same,glycan array binding signal (z-score),[23],0.119
same,glycan array binding signal (z-score),[24],-0.658
same,glycan array binding signal (z-score),[25],0.062
same,glycan array binding signal (z-score),[26],-0.437
same,glycan array binding signal (z-score),[27],-0.64
same,glycan array binding signal (z-score),[28],-0.437
same,glycan array binding signal (z-score),[29],-0.292
same,glycan array binding signal (z-score),[30],0.089
same,glycan array binding signal (z-score),[31],0.251
same,glycan array binding signal (z-score),[32],-0.755
same,glycan array binding signal (z-score),[33],-0.393
same,glycan array binding signal (z-score),[34],0.156
same,glycan array binding signal (z-score),[35],0.011
same,glycan array binding signal (z-score),[36],-0.302
same,glycan array binding signal (z-score),[37],-0.093
